Hit rate of the full screen: of about 52,000 compounds, about 4,300 (8.3%) were called active. No stated cut-off is given here; in the data, active means survival mostly below about 52% (no sharp cut-off); inactive means mostly above about 56%. The list shows a part of the results.
Each molecule was assayed on DeltatarO mutant (assay: growth inhibition of S. aureus wild type versus tarO mutant, primary screen, teichoic acid synthesis inhibitors, RN4220, OD600 (AID 463173)). Conditions: OD600, 18 h, stronger effect = lower value, screened at 18.75 µg/mL (by protocol).

Structure (SMILES)	survival
CCOC(=O)c1cccc(NC(=O)Nc2c(C)n(C)n(-c3ccccc3)c2=O)c1	inactive: 94%
Cc1cccc(-n2ncc3c(NNC(=O)c4ccccc4Cl)ncnc32)c1	inactive: 64%
COc1ccc(-c2ccc(=O)n(CC(=O)Nc3cc(OC)ccc3OC)n2)cc1	inactive: 80%
CCCc1oc(C(=O)O)cc1CN1CCOCC1	inactive: 76%
COc1ccc(CNC(=O)c2cc(-c3ccc(Br)s3)nc3ccccc23)cc1	inactive: 77%
COc1ccc(C(=O)c2cn(Cc3ccccc3OC)c3cc4c(cc3c2=O)OCO4)cc1	inactive: 95%
CCN(CC)C(=O)c1sc2c(c1C)c(=O)n(-c1ccc(OC)cc1OC)c(=O)n2CC(=O)Nc1ccccc1	inactive: 73%
Cc1cccc(N2CCN(c3nc4ccccc4c4nnc(C)n34)CC2)c1C	inactive: 97%
COc1ccc(CNC(=O)Cn2cccc2C(=O)c2ccccc2C)cc1	inactive: 78%
Cc1cc(C)cc(-n2ccnc2SCC(=O)Nc2ccccc2F)c1	inactive: 71%
Cc1ccc(OCCn2c(C3CC(=O)N(Cc4ccc(F)cc4)C3)nc3ccccc32)c(C)c1 (stereo not drawn)	active: 3%
COc1ccccc1/C=C/C(=O)Nc1nc2n(n1)C(c1ccc(F)cc1)C=C(c1ccccc1)N2 (stereo not drawn)	inactive: 65%
O=C(Nc1ccccn1)C(=NO)C(=O)Nc1ccccn1	inactive: 98%
O=S(=O)(NCC(c1ccccc1)N1CCc2ccccc21)c1ccc(Cl)cc1 (stereo not drawn)	inactive: 73%
Cc1ccc(-n2nnnc2SCC(=O)NCCc2ccccc2)cc1C	active: 42%
COc1ccc(NC(=O)c2ccc(NC(=O)CCS(=O)(=O)c3cccs3)cc2)cc1Cl	inactive: 63%
CCOc1ccc(N(CC(=O)OC)S(=O)(=O)c2ccc3c(c2)n(C)c(=O)c(=O)n3C)cc1	active: 46%
CCC(C)NC(=O)Cn1c(=O)n(-c2ccc(Cl)cc2)c(=O)c2c3c(sc21)CCCC3 (stereo not drawn)	inactive: 79%
Cc1ccc(C)c(N2CCN(C(=O)c3c(C)oc4nc(C)nc(N5CCOCC5)c34)CC2)c1	inactive: 115%
Clc1cccc(-c2cc3nc4c(c(N5CCCCC5)n3n2)CCCC4)c1	inactive: 99%
CCCCC(=O)OC1=CN(Cc2ccccc2)S(=O)(=O)c2ccccc21	inactive: 106%
COc1ccc2c(c1)c(CC(=O)Nc1c(C)cccc1C)c(C)n2C(=O)c1ccc(Cl)cc1	inactive: 78%

Structure (SMILES)	survival
CSc1ccc(CCNC(=O)c2ccc(-n3c(C)cc4c3CCC(C)C4)cc2)cc1 (stereo not drawn)	inactive: 129%
COc1ccc(OCC(=O)NCc2ccc3c(c2)CCN3C(=O)c2cccc(C)c2)cc1	inactive: 82%
Cc1cc(C)cc(NC(=O)CCn2cnc3ccccc3c2=O)c1	inactive: 77%
CCOc1ccccc1NC(=O)Cn1c(=O)n(-c2ccc(C)cc2)c(=O)c2c1cnn2C	inactive: 77%
Cc1cc(C(=O)Nc2ccccc2C(=O)O)c(C)o1	inactive: 66%
CCc1cccc(NC(=O)CC(c2ccc(OC)cc2)N2Cc3ccccc3C2=O)c1 (stereo not drawn)	inactive: 69%
CC(C)c1ccc(C2NC(=O)c3c(sc4c3CCN(C)C4)N2)cc1 (stereo not drawn)	inactive: 60%
O=C(NCc1cccc(Cl)c1)c1cnc(N2CCOCC2)c2ccccc12	inactive: 89%
O=C(O)CNc1ccc2nncn2n1	inactive: 90%
CCOc1ccc(NS(=O)(=O)c2c(C)nc3sc(CC)nn3c2=O)cc1	inactive: 77%
COCCNC(=O)c1ccc2c(c1)ncn2-c1cc(C)ccc1OC	inactive: 102%
CCc1ccc(CNC(=O)Cn2nc(C)c3nn(-c4ccc(Cl)cc4)c(C)c3c2=O)cc1	inactive: 93%
CCN(CC)C(=O)CSc1nnc2c3ccccc3n(C)c2n1	inactive: 89%
Cn1cccc1-c1cc2n(n1)CCC(=O)N2CCCC(=O)NCc1cccc(Cl)c1	inactive: 85%
CCCc1nnc(SCc2cc(=O)c3c(C)cc(C)cc3[nH]2)n1C	inactive: 95%
CCc1nnc(NC(=O)CSc2nccn2Cc2ccc(Cl)cc2)s1	inactive: 83%
Cc1ccc(OCCCn2c(-c3ccc(Cl)cc3)nc3ccccc3c2=O)cc1C	inactive: 58%
O=C(NCC(c1ccc2c(c1)OCO2)N1CCN(c2ccccc2)CC1)c1ccc(F)c(F)c1 (stereo not drawn)	inactive: 69%
O=C(Nc1ccc(F)cc1F)C1CCN(C(=O)c2cnn(-c3ccccc3)c2-n2cccc2)CC1	inactive: 106%
C=CCC(CC=C)(CNC(=O)C(=O)Nc1ccc(Br)cc1)c1ccc(OC)c(OC)c1	inactive: 68%
O=C1C=C(N2CCCCC2)C2(CCCCC2)O1	inactive: 106%
CCCc1cnc2c(c1SCc1ccc(C(F)(F)F)cc1)c(=O)n(C)c(=O)n2C	inactive: 54%

Structure (SMILES)	survival
CC(C)Oc1ccc(CNC(=O)c2ccc(Cn3c(=O)c4cccn4c4cccnc43)cc2)cc1	inactive: 55%
Cc1ccc(NC(=O)CSc2ccc(-c3sc(-c4ccccc4)nc3C)nn2)cc1F	active: 25%
O=C(Cn1cc(/C=N/NC(=O)c2ccc(Oc3ccc(O)cc3)cc2)c2ccccc21)NCc1ccco1	inactive: 71%
COc1ccccc1N1CCN(C(=O)Cn2ncc3c(=O)oc4ccc(C)cc4c32)CC1	inactive: 98%
Cc1cccc(N2CCN(C(=O)CCSCc3ccccc3F)CC2)c1C	inactive: 102%
CN(C)S(=O)(=O)c1ccc(C(=O)Nc2ccc(-n3nncc3-c3ccccc3)cc2)cc1	inactive: 105%
COc1ccccc1NS(=O)(=O)c1cc2c(cc1Cl)NC(=O)CO2	inactive: 82%
c1ccc(C2CN3CCSC3=N2)cc1 (stereo not drawn)	inactive: 79%
O=C1CN(C(=O)Nc2ccccc2C(F)(F)F)C(c2ccccc2)c2c(sc3c2CCCC3)N1 (stereo not drawn)	inactive: 66%
CCOc1ccc(CCNC(=O)CSc2cc(=O)n(C)c3ccc(Cl)cc23)cc1OCC	inactive: 123%
O=C(O)CCCNC1=NCCN1	inactive: 98%
Cc1ccc(OCC(O)Cn2c(=N)n(CCN3CCCCC3)c3ccccc32)cc1 (stereo not drawn)	active: 36%
Cc1ccc(-n2ncc(C(=O)NCCCN3CCCCC3)c2C2CCN(C(=O)OC(C)(C)C)CC2)cc1	inactive: 80%
COc1cccc(OC)c1C(=O)Nc1ccc(S(=O)(=O)Nc2nccc(C)n2)cc1	inactive: 84%
COc1ccc(C(C(=O)NCc2cccs2)N(Cc2ccco2)C(=O)Cn2nnc(-c3cccs3)n2)cc1 (stereo not drawn)	inactive: 93%
Cc1ccc(NC(=O)c2c(C)nc3sc(C(=O)Nc4ccc(F)cc4)c(N)c3c2-c2ccccc2Cl)c(C)c1	inactive: 65%
CCOC(=O)c1c(C)n(-c2ccccc2)c2ccc(OC(=O)c3ccccc3NC(=O)C(C)(C)C)cc12	inactive: 55%
CC(=O)c1ccc(NC(=O)Cn2c(=O)n(Cc3ccco3)c(=O)c3sc4ccccc4c32)cc1	inactive: 51%
Cc1ccc(N(Cc2cccs2)C(=O)COc2cccc(C)c2)cc1	inactive: 62%
CCc1nnc(SCC(=O)N2c3ccc(F)cc3CCC2C)n1C (stereo not drawn)	inactive: 66%
COc1ccc(C2=NC(C)(C)N(CC(=O)Nc3ccc(F)c(F)c3)C2=O)cc1	inactive: 92%
Cc1nn2c(=O)cc(COC(=O)CNC(=O)c3ccc(F)cc3)nc2s1	inactive: 55%

Structure (SMILES)	survival
CCN1CCN(c2cc(C)c3cc(NC(=O)c4cc(Cl)ccc4OC)ccc3n2)CC1	active: 8%
CCOc1ccc2c(c1)c(=O)c(S(=O)(=O)c1ccccc1)cn2CC(=O)Nc1ccccc1OC	inactive: 70%
Cc1ccc(CNC(=O)C2CCN(S(=O)(=O)c3ccc4c(c3)CCCN4C(=O)C3CCC3)CC2)cc1	inactive: 80%
O=C(NCCSc1c(-c2ccccc2)[nH]c2ccccc12)c1ccc(S(=O)(=O)N2CCOCC2)cc1	inactive: 70%
Cc1nc(-c2ccccc2)sc1CCNS(=O)(=O)c1ccccc1	inactive: 73%
O=C(O)c1cc(-c2ccc(C(F)(F)F)cc2)nc2n[nH]c(-c3ccccc3)c12	inactive: 83%
CC(=O)c1ccc(NC(=O)Cn2cc3c(n2)CCCC3)cc1	inactive: 83%
CCc1ccc(S(=O)(=O)c2cn(CC)c3cc(N4CCOCC4)c(F)cc3c2=O)cc1	inactive: 88%
CCOc1ccc(CN2CCN(c3ncnc4sc5c(c34)CC(C)CC5)CC2)cc1 (stereo not drawn)	inactive: 60%
CCN(CC)CCN1C(=O)C2C3c4ccccc4C(c4ccccc43)C2C1=O (stereo not drawn)	inactive: 96%
COc1ccc(Cl)cc1NC(=O)c1ccc2c(c1)CCCN2S(C)(=O)=O	inactive: 66%
COc1ccccc1C(=O)Nc1nnc(S(=O)(=O)N(C)c2ccc(Cl)cc2)s1	inactive: 95%
Cc1cccc(C)c1NC(=O)Cn1c(=O)n(CCC(=O)NCc2ccccc2Cl)c(=O)c2sccc21	inactive: 63%
COc1ccc(OC)c(CCNC(=O)c2c(C)oc3ncn(C)c(=O)c23)c1	inactive: 76%
CCCCn1c(SCC(=O)N2c3ccccc3Sc3ccccc32)nc2c1c(=O)n(C)c(=O)n2C	inactive: 68%
CCOc1ccc(S(=O)(=O)N(CC(=O)NCCc2ccc(OC)c(OC)c2)c2ccccc2)cc1	inactive: 49%
Cc1ccccc1Cn1c(CN2CCC(C(=O)NCCN(C)C)CC2)cc2ccccc21	inactive: 112%
Cc1ccccc1NC(=O)CN1C(=O)C(C)(C)c2ccccc21	inactive: 80%
COc1cccc(NC(=O)c2cc3c(=O)n(C)c4ccccc4c3n2C)c1	inactive: 110%
O=C(c1cnn2c1NC(c1ccc(Br)cc1)CC2C(F)(F)F)N1CCCC1 (stereo not drawn)	inactive: 71%
Cc1cc(C)c(S(=O)(=O)NCCc2csc3nc(-c4ccc(Cl)cc4)nn23)c(C)c1	inactive: 65%
CC(=O)c1ccc(N2CCN(C(=O)C3CCN(S(=O)(=O)c4c(C)noc4/C=C/c4ccccc4F)CC3)CC2)cc1	inactive: 71%
